Read counts are not given, so values of variants with three or more changes are uncertain.

The record followed here is the RNAGym collection of RNA variant scans (doi:10.7554/elife.90254).

First the molecules themselves.
B1: LINE1-mini (parent)
chain: GGCAGAGCUCAACACAGCGUGGCAAAGUGGCUGUGGCUAGACUGCC

This data set covers variants of B1. Briefly: self-cleavage, relative activity (ratio to wild type); higher = more cleavage; in vitro, sequencing; the parent is a self-cleaving ribozyme.
In the case of G2U C8G G33A, the self-cleavage was 0.03. For the variant G2U C8G A41U, the self-cleavage came to 0.03. With G2U U38A G44A, the self-cleavage is 0.04. As for G2U C10U U34G, the self-cleavage was 0.02. The result for G2U C8U G17A U32A U43A reads 0.02; that for G2U C10A U20C C42A, 0.01. G2U C3U G33U: the self-cleavage was determined as 0.05. The result for G2U C15A G30A C42U G44C reads 0.03. Consider G2U C10G C18U A24G G29C C45G C46G, for which the self-cleavage was found to be 0. The result for G2U G5U C31U U38G reads 0.01; that for G2U C18G G29U, 0.13; that for G2U G5A C46A, 0.07. The result for G2U C13A C23U U28C G44U reads 0.01; that for G2U C13U A26G U32A C46A, 0.03; that for G2U U34C G35U, 0.04.

Consider G2U G35U C45U, for which the self-cleavage turned out to be 0.02. The result for G2U U28A U43C C46A reads 0.01.

In the case of G2U C13A A24U G29U C42A, the self-cleavage was found to be 0.01. In the case of G2U G22C C45G, the self-cleavage worked out at 0.18. The result for G2U G22A C45U reads 0.1; that for G2U G17C A39G C42G, 0; that for G2U G21U C31A, 0.02. With G2U G5U C8G U32A, the self-cleavage came to 0.02. Turning to G2U G33U U34G, the self-cleavage turned out to be 0.08. The result for G2U G5U C13A A25G reads 0.02; that for G2U U43A C46G, 0. The result for G2U C10U G29U reads 0.05; that for G2U G21A U28A, 0.19; that for G2U C18A U28C U38C, 0.03. As to G2U U9C C42G, the self-cleavage is 0.02. The result for G2U C8G G17U U43A reads 0.01; that for G2U C3U U28G G30U U43A, 0.08.

Consider C3A A4C A6U G7A U32A C46A, for which the self-cleavage was 0.38.

Consider G2U U34C U43G C45A, for which the self-cleavage is 0. With G2U C10G G27U A41U, the self-cleavage stood at 0. For G2U G27U A41U, the self-cleavage came out at 0.09.

In the case of G2U C13U C18A C23G, the self-cleavage was 0.01. The result for C3A A4C A14U U20G G27C G29C G30C reads 0. For the variant G2U C13A G40U, the self-cleavage came to 0. The result for G2U G29U C37U C45U reads 0.05; that for G2U U20C C23U A24U C31A, 0.02; that for G2U G5U C10A G17A C18G, 0. Regarding G2U C10G G19U A26G U34G C46G, the self-cleavage came out at 0.01. Consider G2U G7U C31A G40C, for which the self-cleavage amounted to 0.06.

For G2U G7U C13G G19A G36A U38A, the self-cleavage came out at 0.02. The result for G2U C13U A25C G27U reads 0.02; that for G2U G22A A25U U28C C37G, 0.04. In the case of G2U G22U G36U C37U C45G, the self-cleavage was found to be 0.01. As for G2U U9G G40U, the self-cleavage is 0.06. With G2U C18A C31G G35U C42G, the self-cleavage was 0.03.

In the case of G2U G21A G36A, the self-cleavage came to 0.08.

Consider G2U U9G A11G G21C C31U, for which the self-cleavage is 0. Regarding G2U G17C C23U C42A, the self-cleavage stood at 0.04.

For G2U C3U G33U U38A C42U, the self-cleavage stood at 0.03. Turning to G2U G7A C13U C46A, the self-cleavage worked out at 0.03. For G2U C37A G44A, the self-cleavage was 0.02. G2U U9A A24U C46G: the self-cleavage was 0.03. On to G2U C8U C37A C42A, for which the self-cleavage is 0.02.

As to G2U C15G A26C, the self-cleavage stood at 0.

In the case of G2U C8A A25C U38A, the self-cleavage is 0.01. In the case of G2U G27A U38A, the self-cleavage is 0.04.

Regarding G2U G27A A41U, the self-cleavage is 0.1. Turning to G2U U9A G17U U20G, the self-cleavage was found to be 0.02.

As for G2U C8U A25C G29A C42U, the self-cleavage was 0.03. Consider G2U G22A C31A C37A G44U, for which the self-cleavage worked out at 0.11. For G2U G22A A24U, the self-cleavage was found to be 0.04. The result for G2U G5A C8A A16G C18U C31A U38G reads 0.08; that for G2U C15U G29C C45G, 0.09; that for G2U C13A U20G A41U, 0.01. The result for G2U C15U G19C G30A G44C reads 0.05.

With G2U U9C G21U A24U G27A U34A C46A, the self-cleavage worked out at 0.01. The result for G2U U9G A25G reads 0.07. The result for G2U C10G A11C C23A C42U reads 0.01. The result for G2U C13U A14C C18U U34C G36U reads 0.05. Regarding G2U C10U C37G, the self-cleavage amounted to 0.01. In the case of G2U G5A A14U, the self-cleavage is 0.05. For G2U C23A U28A, the self-cleavage is 0.08. The result for G2U C8A G30A G33A A39G reads 0.13; that for G2U G17C G19U A39G C42A, 0.03; that for C3A A4C C8A G40A, 0.24. The result for G2U G5U C13A G21A A26C U28G reads 0.01.

With G2U C10A G30C A41U C42U U43G, the self-cleavage is 0.01. The result for G2U U9C A11U A26G A41C reads 0.03. The result for G2U G7C A24U U38A C45G reads 0.04; that for G2U U32C C42U, 0.05; that for G2U G22A C23U A24U G30U U38G, 0.01. The result for G2U G5C A24U C31G G33C C46G reads 0.02; that for G2U G19C G30C, 0.02.

In the case of G2U G17A G35U, the self-cleavage is 0.11.

As for G2U U9C C18G, the self-cleavage was determined as 0.01. Turning to G2U U20A G21U A25U A26G G30U, the self-cleavage was found to be 0.05. The result for G2U G17U A24C reads 0.05.

In the case of G2U G7U C13A A16U U20A U28A, the self-cleavage is 0.02.

For G2U U20A A26G, the self-cleavage was found to be 0.02. Turning to G2U G21U U43C, the self-cleavage was 0.02. The result for G2U G5U G17C reads 0; that for G2U G30A G35C G36U, 0.04; that for G2U G30U C31A, 0.19. The result for G2U G27U G33U U43G C45A reads 0; that for G2U G17A U20C A39C, 0.01. The result for G2U C3U G5A U9C C31U G36U reads 0.02; that for G2U U9A U20C U32G, 0.04. With G2U G5U A11G G29U C46A, the self-cleavage was found to be 0.01. The result for G2U U20A C23A reads 0.24; that for G2U U20G U38C, 0.05. For the variant G2U G7A G40A, the self-cleavage is 0.04. The result for G2U U9C C18U C23G C31A reads 0.01; that for G2U U34C G40C, 0.06; that for G2U U9G A11U G19U G40A, 0.01. For G2U G27U U38C U43G, the self-cleavage amounted to 0. The result for G2U C13U C18U U34G G44U reads 0.05; that for G2U G7U C23G C45U, 0.02. For the variant G2U G27U U28C, the self-cleavage came out at 0.01. Regarding G2U G5A G17U A26U, the self-cleavage was 0.01.

In the case of G2U G5A C23U C37A C42U C45A, the self-cleavage came out at 0.03.

As for G2U G5U G7A U9A G30C C31A G40A, the self-cleavage is 0.05. With G2U G5U U9A, the self-cleavage was found to be 0.02.

Take G2U G5C G27A G33U G40C: the self-cleavage was found to be 0. The result for G2U C8G G29U G30C reads 0.04; that for G2U G5U A25U C45U, 0.04; that for G2U C13A G19U U34G, 0.04. In the case of G2U G30C U32C C46U, the self-cleavage came out at 0.02.

Take G2U C15A A26C: the self-cleavage stood at 0.03.

On to G2U G33U G36A, for which the self-cleavage worked out at 0.01. Consider G2U U32G G36C, for which the self-cleavage was found to be 0.03. Consider G2U C13A A16G G21C G33U, for which the self-cleavage is 0.

G2U G21A C37U U43G: the self-cleavage is 0.03. The result for G2U G29C C37U reads 0.04.

Regarding G2U G30U G33A, the self-cleavage amounted to 0.08.

Take G2U G7A U9C U20G: the self-cleavage came out at 0.02. The result for G2U C8G A12C C15A G19A U38G reads 0.01. The result for G2U G17U G22A C23G reads 0.01; that for G2U C10A C18G U28C C31G A39G, 0.

Consider G2U C10G C23G A24C U32G U34A A41G, for which the self-cleavage was determined as 0.

Consider G2U C13U G30U A39U C45U, for which the self-cleavage is 0.02. The result for G2U U32C G33U reads 0.04; that for G2U C15G C23A C37A, 0.01; that for G2U U28A U34G, 0.02. For G2U C18A G40U C45A, the self-cleavage was 0.03. The result for G2U G7A A12U C18U G36U reads 0.18; that for G2U G7U G33C, 0.07. The result for G2U U28A C46G reads 0.15; that for G2U G21A G22U A24U G27A G33A U38A G44C, 0.06. The result for G2U G21C C46G reads 0.04; that for G2U U9G A24U, 0.01; that for G2U G5U U9C C10U, 0.01. Take G2U C3U C37G U38C: the self-cleavage came out at 0.04. The result for G2U C18A C46A reads 0.04; that for G2U C10G A16U G27A A39C, 0.01; that for G2U C8U C13A C18A U32A, 0.05. G2U C23A A24C U32C: the self-cleavage worked out at 0.08. The result for G2U C31G C37A A39U reads 0.1.

For the variant G2U G5A C18A G21A G29U, the self-cleavage is 0.

With G2U G35U U43A, the self-cleavage is 0.09.

G2U C10A G19A C46G: the self-cleavage amounted to 0.01. Take G2U G7A A16U: the self-cleavage was 0.01.

Take G2U C15G C18U: the self-cleavage came to 0.01. For the variant G2U C23U G44A, the self-cleavage turned out to be 0.14.

As to G2U C13G G44C C46A, the self-cleavage is 0.03.

G2U C13U C23A U32A U43C: the self-cleavage is 0.01. Consider G2U U9G A24C G27C, for which the self-cleavage was 0.02. Consider G2U C18A A25U A39G U43G C45A, for which the self-cleavage was determined as 0. The result for G2U G5U A24C A26C reads 0.02. The result for G2U G19U G36C G40A reads 0.03; that for G2U G7C A16G G19A U43A, 0.02; that for G2U C15G A26U G29C U32G G40C, 0. Take G2U G30A C31A C45G: the self-cleavage was determined as 0.08.
